# Measured values reported in PubChem BioAssay AID1347120 (National Center for Advancing Translational Sciences (NCATS), 2019).
# In all, about 390,000 compounds went through this assay and about 930 (0.24%) were called active. The inconclusive results got no clear call from the source; some entries with a clear call stand among them for comparison. Calls follow the shape of the dose curve; as a rule, active = well fitted activation curve with a large enough effect; inconclusive = small, poorly fitted or top-dose-only effect; inactive = no such curve, though single readings can be large or run the other way. A potency beside an inconclusive call is a rough fit, not a confirmed value.
# Experiment: qHTS for Suppressors of FUS Proteinopathy: Primary screen using FUS-linked yeast assay; also: nearly all actives have a fitted effect of over 55% in size;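 as to growth rescue (activation): plate controls were DMSO vehicle for no effect and reference control for full effect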
# Conditions: S. cerevisiae FUS-expressing, OD600, 24 h; Potency: growth rescue; growth rescue (activation): at 76.6 µM (top of the series)
# Method in brief: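 Steps: raffinose overnight preculture; dilution to OD 0.005 in 2% galactose minimal medium; compound addition (concentration series); 24hr at 30C, 99% humidity; absorbance read at 600 nm.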
# Potency is read from the fitted curve at half-maximal effect; tags tell the direction and shape of the fitted curve.
Compound,growth rescue (activation),Potency
COc1ccc(-c2n[nH]c(=S)n2-c2ccc(C)cc2)cc1,inactive: 15.3%,–
CCN(CC)S(=O)(=O)c1ccc(C)c(NC(=O)Cn2cnc3cc([N+](=O)[O-])ccc3c2=O)c1,–,"inconclusive: 12.6 µM [activator, partial curve, poor fit]"
CC(O)(c1cccc(F)c1)c1nc(-c2cccc(C(=O)O)c2)cs1 (stereo not given),inactive: -7.69%,–
COc1ccc(C2NC(=S)NC3=C2CCc2cc(OC)ccc23)cc1 (stereo not given),–,"inconclusive: 35.5 µM [activator, single point]"
Cc1cccc(N2CCN(C(=O)Cn3nc(Cc4cccnc4)c4ccccc4c3=O)CC2)c1C,inactive: 32.2%,–
COc1ccc(S(=O)(=O)N(CC(=O)Nc2cccnc2)c2ccc(Cl)cc2)cc1,–,"inconclusive: 31.6 µM [activator, single point]"
CC(=O)Nc1ccc(NC(=O)C2Cc3c(-c4cccc(F)c4)ccnc3O2)cc1 (stereo not given),inactive: 4.57%,–
COc1ccc(CNC(=O)Cn2c(=O)cc(-c3ccccc3)c3c(C)nn(C)c32)cc1,–,"inconclusive: 35.5 µM [activator, single point]"
CCN1CCc2nc3sc(C(=O)c4ccc(F)cc4)c(N)c3cc2C1,–,"inconclusive: 11.2 µM [activator, partial curve]"
Cc1ccc(-n2c(=O)c3c(c4cc(C)ccc4n3C)n(CC(=O)NCc3ccccc3)c2=O)cc1,inactive: -12.3%,–
CCOC(=O)c1ccc(-n2[nH]c(-c3ccccc3)cc2=O)cc1,–,"inconclusive: 28.2 µM [activator, single point]"
Cc1nc(-n2[nH]c3c(c2=O)CCCC3)[nH]c(=O)c1Cc1ccccc1,–,"inconclusive: 35.5 µM [activator, partial curve, poor fit]"
Cc1ccc2occ(CC(=O)N(Cc3ccc(C(C)C)cc3)C3CCS(=O)(=O)C3)c2c1 (stereo not given),–,"inconclusive: 22.4 µM [activator, single point]"
COc1ccc(NC(=O)c2c(NCc3cccc(OC)c3)sc3c2CCCC3)cc1,–,"inconclusive: 28.2 µM [activator, partial curve]"
O=c1cc(-c2ccccc2)[nH]c2[nH]n(-c3ccccc3)c(=O)c12,–,"inconclusive: 3.55 µM [activator, full curve]"
Cc1ccc2c(c1)C(O)(c1c(C)[nH]c3ccccc13)C(=O)N2 (stereo not given),–,"inconclusive: 25.1 µM [activator, partial curve]"
COc1ccc(Cl)cc1NC(=O)CSc1cn(CC(=O)N2CCCCCC2)c2ccccc12,inactive: 36.5%,–
O=C(NCCN=C1NS(=O)(=O)c2ccccc21)c1ccc2nccnc2c1,inconclusive: 50.3% [activator],–
COc1ccc(NC(=O)Nc2ccc3c(c2)C(=O)N([C@H](C)CO)C[C@@H](C)[C@@H](CN(C)C(=O)C2CCCCC2)OCCCC[C@H](C)O3)cc1,–,"inconclusive: 25.1 µM [activator, partial curve, poor fit]"
Cc1sc(-n2c(C)cc(/C=C3\SC(=S)NC3=O)c2C)c(C#N)c1C,–,active: 15.8 µM
CCc1nc2c(OCCC3CCCCC3)cccn2c1N(C)C(=O)c1ccc(OC)cc1,–,active: 22.4 µM
Cc1ccc(S(=O)(=O)NCC(=O)NCc2cc(=O)n(C)c(=O)n2C)cc1C,inactive: -20.8%,–

Compound,growth rescue (activation),Potency
CCc1ccc(NC(=O)CC2C(=O)N(c3cccc(C)c3)C(=O)N2Cc2ccco2)cc1 (stereo not given),inactive: 40%,–
COc1ccccc1S(=O)(=O)N(C)C[C@H]1Oc2cc(C#CCC3CCCC3)ccc2S(=O)(=O)N([C@H](C)CO)C[C@H]1C,–,"inconclusive: 25.1 µM [activator, single point]"
O=C(CSc1ccc(-c2nc3ccccc3[nH]2)cn1)Nc1ccc2c(c1)OCCO2,inactive: -9.79%,–
COc1ccc(S(=O)(=O)NCC(c2ccco2)N2CCN(c3ccc(F)cc3)CC2)cc1C (stereo not given),–,"inconclusive: 39.8 µM [activator, single point]"
CC1(C)CC(=O)C2=C(C1)Nc1cc3c(cc1C2c1ccc2c(c1)OCO2)OCO3 (stereo not given),–,active: 35.5 µM
O=C(c1ccccc1)c1ccc(OC(=O)N2CCOCC2)cc1,–,"inconclusive: 35.5 µM [activator, single point]"
Cc1cc(/C=C2/NC(=O)N(c3ccccc3)C2=O)c(C)n1C(C)C,–,"inconclusive: 20 µM [activator, partial curve, poor fit]"
O=C(Nc1ccc(F)c(Cl)c1)C1CCCN(c2cnccn2)C1 (stereo not given),–,inactive
Cc1cccc(C(=O)N[C@H](C(=O)Nc2nc3ccc(S(C)(=O)=O)cc3s2)C(C)C)c1,–,"inconclusive: 15.8 µM [activator, partial curve]"
CCN1CCN(CC(=O)n2c3c(c4ccccc42)CC(C)CC3)CC1 (stereo not given),inactive: 2.02%,–
COc1ccccc1-c1cc(C(F)(F)F)nc(S(C)(=O)=O)n1,inactive: 21.7%,–
COc1ccc(N2CCC(CNC(=O)Nc3cccc(OC)c3)C2)cc1 (stereo not given),–,"inconclusive: 15.8 µM [activator, partial curve, poor fit]"
COc1ccccc1N(CC(=O)NCCSCc1ccccc1)S(=O)(=O)c1ccccc1,–,"inconclusive: 35.5 µM [activator, single point]"
Cc1cc(C(=O)NC(C)c2ccncc2)no1 (stereo not given),inconclusive: 64.7% [activator],–
COc1ccccc1N(CC(=O)NCCN1CCOCC1)S(=O)(=O)c1ccccc1,inactive: 10.6%,–
CON(C)C(=O)CC1(CN(Cc2ccccc2)C(=O)OC(C)(C)C)CCCCC1,–,"inconclusive: 31.6 µM [activator, single point]"
Cc1ccc(-c2nn(Cc3ccccc3)cc2/C=C/C(=O)O)cc1C,–,"inconclusive: 50.1 µM [activator, single point]"
Cc1ccc(-c2nnc(CSc3nnc(COc4ccccc4)n3-c3ccc(C)cc3)o2)cc1,–,"inconclusive: 20 µM [activator, partial curve]"
COc1cccc(Cn2c(NCc3ccc(C)cc3)nc3c2c(=O)n(C)c(=O)n3C)c1,inactive: 11.1%,–
CS(=O)(=O)N(CC(=O)Nc1ccc(C(N)=O)cc1)C1CCCCC1,–,"inconclusive: 11.2 µM [activator, single point]"
C[C@@]12C(=O)Nc3ccc(Cl)cc3C(=O)N1[C@H]1c3cc(Cl)ccc3OC[C@@H]1[C@@H]2c1ccccc1,–,"inconclusive: 12.6 µM [activator, partial curve, poor fit]"
O=C(CSc1ccc2c(c1)OCCO2)NCc1ccco1,–,"inconclusive: 35.5 µM [activator, partial curve, poor fit]"

Compound,growth rescue (activation),Potency
CC1CCCCN1CC(=O)Nc1sc2c(c1C#N)CCC2 (stereo not given),–,"inconclusive: 44.7 µM [activator, single point]"
Cc1ccc(-n2nc(C(=O)Nc3ccc(C)c(F)c3)c3c4ccccc4n(C)c3c2=O)cc1,inactive: -9.81%,–
CCCn1c(SCC(=O)N2CCN(c3ccccc3)CC2)nc2ccccc2c1=O,–,"inconclusive: 35.5 µM [activator, partial curve, poor fit]"
CC1CCN(c2c([N+](=O)[O-])nn(-c3ccc4c(c3)OCCO4)[n+]2[O-])CC1,–,"inconclusive: 20 µM [activator, single point]"
COCCNC(=O)CCN1C(=O)c2cccnc2Oc2ccc(C)cc21,inactive: -2.25%,–
CC(C)(C)c1cc(C(C)(C)C)cc(S(=O)(=O)CCc2ccccn2)c1,–,"inconclusive: 35.5 µM [activator, single point]"
CCCN(CC(=O)Nc1ccccc1C)C(=O)c1ccc(-c2ccc([N+](=O)[O-])cc2)o1,–,"inconclusive: 28.2 µM [activator, single point]"
Cc1cccc(NC(=O)c2ccc(-c3nc(CSc4ccccc4)c(C)o3)cc2)c1C,inactive: -3.08%,–
Cc1nc2sc(C(N)=O)c(N)c2c(-c2ccc(Br)cc2)c1C(=O)Nc1ccc(Cl)cc1,–,"inconclusive: 35.5 µM [activator, single point]"
Cc1ccc(C(=O)Nc2onc3c2CCCC3)cc1,inactive: -3.15%,–
O=C(CSc1nnc2ccc3ccccc3n12)c1ccc(F)cc1,inactive: -6.11%,–
COc1ccc(-c2ccc3c(c2)O[C@@H](CN(C)C(=O)c2ccccc2F)[C@@H](C)CN([C@@H](C)CO)S3(=O)=O)cc1,–,"inconclusive: 28.2 µM [activator, single point]"
Cc1ccccc1C(=O)Nc1ccc2c(c1)CCCN2C(=O)c1cccs1,–,"inconclusive: 35.5 µM [activator, single point]"
CSc1ccc(CNC(=O)CCn2c(=O)c3cccn3c3ccc(F)cc32)cc1,–,"inconclusive: 44.7 µM [activator, single point]"
C[C@H](CO)N1C[C@H](C)[C@H](CN(C)C(=O)Nc2ccc(F)cc2)Oc2ccc(NC(=O)NC3CCCCC3)cc2CC1=O,–,"inconclusive: 22.4 µM [activator, partial curve]"
CC(C)N(CCC(=O)c1ccc2ccccc2c1)Cc1ccccc1,inactive: -24%,–
CC(C)N1C(=O)C(Cc2nc3ccccc3c(=O)n2-c2ccccc2)c2ccccc21 (stereo not given),–,"inconclusive: 22.4 µM [activator, partial curve, poor fit]"
COc1cccc(NC(=O)Cc2nc(-c3ccccc3)sc2-c2ccc(C)cc2)c1,inactive: 11.9%,–
COc1ccc(C2c3[nH]c4ccccc4c3C[C@H]3C(=O)N(c4ccccc4C(=O)NCCN4CCOCC4)C(=O)N23)cc1 (stereo not given in full),–,"inconclusive: 12.6 µM [activator, partial curve]"
O=C(Nc1ccc(O)cc1)C1CC=CCC1 (stereo not given),–,"inconclusive: 8.91 µM [activator, partial curve, poor fit]"
CCCCSc1nc2sc3c(c2c(=O)n1-c1ccc(C)cc1)CCN(C)C3,–,"inconclusive: 31.6 µM [activator, single point]"
